Results on 76 variants are retold here after a collection of fitness landscapes (doi:10.1016/j.celrep.2020.107928).

To fix the notation:
B1: Caulobacter ParB omega fusion; a variant is named by its letters at X, in order, B8GW30 (parent)
chain: MESVVVGEPGMSEGRRGLGRGLSALLGEVDAAPAQAPGEQLGGSREAPIEILQRNPDQPRRTFREEDLEDLSNSIREKGVLQPILVRPSPDTAGEYQIVAGERAWRAAQRAGLKTVPIMVRELDDLAVLEIGIIENVQRADLNVLEEALSYKVLMEKFERTQENIAQTIGKSXSHVANXMRLLXLPDEVQSYLVSGELTAXHARAIAAAADPVALAKQIIEGGLSVRETEALARKAPNLSAGKSKGGRPPRVKDTDTQALESDLSSVLGLDVSIDHRGSTGTLTITYATLEQLDDLCNRLTRGI

Whole data set: some 81,000 sequences, median “one-hybrid fitness for binding NBS DNA” near -0.1, cut for the highest 2% near 0.36. This is one part of the list.

In this assay the parent is B1. The experiment in a line: one-hybrid fitness for binding NBS DNA (the Noc-binding site; scaled: cognate 1, non-cognate 0); higher = stronger binding. Conditions: with NBS DNA site. An outline of the steps:
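In E. coli USO, a HIS3 reporter with its site placed 19 bp from the promoter was used to select Caulobacter ParB variants randomised at four specificity codons. Growth lasted 48 hours at 37°C on histidine-free M9 containing 0.1 mM IPTG and 5 mM 3-AT. Fitness was taken as the log change in variant-to-wild-type read ratio from Illumina sequencing of pre- and post-selection plasmids, rescaled between the non-cognate and cognate sites.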
As for TSAS, the “one-hybrid fitness for binding NBS DNA” value was at most 0.2.
To RFAI belongs at most 0.2; to MPSG, at most 0.2.
For RERH, the “one-hybrid fitness for binding NBS DNA” value is at most 0.2.
HLGC: the “one-hybrid fitness for binding NBS DNA” value was at most 0.2.
For RLMM, the “one-hybrid fitness for binding NBS DNA” value is at most 0.2.
NMAF: the “one-hybrid fitness for binding NBS DNA” value was at most 0.2.
To MNKG belongs at most 0.2.
Take SAFW: the “one-hybrid fitness for binding NBS DNA” value was at most 0.2.
For the variant CLMC, the “one-hybrid fitness for binding NBS DNA” value was at most 0.2.
To VCML belongs at most 0.2; to QRPR, 0.543; to WDKP, at most 0.2.
On to NVDD, for which the “one-hybrid fitness for binding NBS DNA” value is at most 0.2.
Turning to LECT, the “one-hybrid fitness for binding NBS DNA” value was at most 0.2.
Turning to ANNS, the “one-hybrid fitness for binding NBS DNA” value was at most 0.2.
To VEQG belongs at most 0.2; to NLHV, at most 0.2.
TQDV: the “one-hybrid fitness for binding NBS DNA” value was at most 0.2.
To PFDN belongs at most 0.2; to LCRW, at most 0.2.
Turning to GRMY, the “one-hybrid fitness for binding NBS DNA” value was at most 0.2.
As for VLQV, the “one-hybrid fitness for binding NBS DNA” value was at most 0.2.
On to HQMS, for which the “one-hybrid fitness for binding NBS DNA” value is at most 0.2.
On to WFQG, for which the “one-hybrid fitness for binding NBS DNA” value was at most 0.2.
Regarding SHLE, the “one-hybrid fitness for binding NBS DNA” value is at most 0.2.
As for VDCS, the “one-hybrid fitness for binding NBS DNA” value was at most 0.2.
On to RLKI, for which the “one-hybrid fitness for binding NBS DNA” value was at most 0.2.
Take LHSS: the “one-hybrid fitness for binding NBS DNA” value is at most 0.2.
Consider LGPG, for which the “one-hybrid fitness for binding NBS DNA” value was at most 0.2.
For RLKA the value was 0.335; for IDPE, at most 0.2; for NYRC, at most 0.2.
On to HAWM, for which the “one-hybrid fitness for binding NBS DNA” value was at most 0.2.
Take AFVT: the “one-hybrid fitness for binding NBS DNA” value was at most 0.2.
Regarding YKGG, the “one-hybrid fitness for binding NBS DNA” value is at most 0.2.
Turning to SREN, the “one-hybrid fitness for binding NBS DNA” value is at most 0.2.
As for LKRW, the “one-hybrid fitness for binding NBS DNA” value is at most 0.2.
Regarding STPQ, the “one-hybrid fitness for binding NBS DNA” value was at most 0.2.
As for ISPY, the “one-hybrid fitness for binding NBS DNA” value was at most 0.2.
As to MAKT, the “one-hybrid fitness for binding NBS DNA” value is at most 0.2.
To NLKK belongs at most 0.2; to VDSH, at most 0.2; to THMC, at most 0.2.
To RNYC belongs at most 0.2; to LAIE, at most 0.2.
As for KKRS, the “one-hybrid fitness for binding NBS DNA” value worked out at 0.324.
To SFNG belongs at most 0.2; to SHGL, at most 0.2; to TDSY, at most 0.2.
Turning to SDGQ, the “one-hybrid fitness for binding NBS DNA” value is at most 0.2.
In the case of MCCL, the “one-hybrid fitness for binding NBS DNA” value is at most 0.2.
For HLGD the value was at most 0.2; for RATQ, at most 0.2.
Take QSTW: the “one-hybrid fitness for binding NBS DNA” value is at most 0.2.
Regarding NCHT, the “one-hybrid fitness for binding NBS DNA” value is at most 0.2.
As for VKVF, the “one-hybrid fitness for binding NBS DNA” value is at most 0.2.
SDHR: the “one-hybrid fitness for binding NBS DNA” value was at most 0.2.
CYWS: the “one-hybrid fitness for binding NBS DNA” value is at most 0.2.
For the variant YISR, the “one-hybrid fitness for binding NBS DNA” value is at most 0.2.
With PPAF, the “one-hybrid fitness for binding NBS DNA” value is at most 0.2.
Take EADY: the “one-hybrid fitness for binding NBS DNA” value is at most 0.2.
For PSVV, the “one-hybrid fitness for binding NBS DNA” value was at most 0.2.
Regarding SAKE, the “one-hybrid fitness for binding NBS DNA” value was at most 0.2.
As for RPQL, the “one-hybrid fitness for binding NBS DNA” value is at most 0.2.
For VAQY, the “one-hybrid fitness for binding NBS DNA” value is at most 0.2.
Regarding PDPC, the “one-hybrid fitness for binding NBS DNA” value was at most 0.2.
For the variant PRHP, the “one-hybrid fitness for binding NBS DNA” value was at most 0.2.
To QQWM belongs at most 0.2.
MVSL: the “one-hybrid fitness for binding NBS DNA” value is 0.305.
To QRQG belongs 0.366; to TGTC, at most 0.2; to IQNA, at most 0.2.
With QLRC, the “one-hybrid fitness for binding NBS DNA” value came to 0.337.
Turning to THIT, the “one-hybrid fitness for binding NBS DNA” value is at most 0.2.
On to RKHA, for which the “one-hybrid fitness for binding NBS DNA” value was 0.311.
